Test systems include 501Mel; A101D; A2058; A375.
Experiment in all cases: cell count relative to DMSO control; melanoma cells; higher = more viable cells
What all share (conditions): library dose: standard library concentration; 72 h

The list shows a part of the results. Most values come without repeats; read them as rough.
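Also: cells treated in 1,536-well plates, then fixed and DAPI-stained, with nuclei counted from automated high-throughput microscope images.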

`CC(C)C[C@H](NC(=O)[C@H](Cc1ccccc1)NC(=O)c1cnccn1)B(O)O` [Bortezomib] + Cn1cc(/C=C2\C(=O)Nc3cccnc32)c2ccccc21 [GW441756] (first compound 0.005 µM, partner dose 2 µM): the cell count stood at 2.11% in the test on 501Mel, 12.8% in the test on A101D, 8.31% with A2058 and 71.2% in the test with A375.

For `CC(C)C[C@H](NC(=O)[C@H](Cc1ccccc1)NC(=O)c1cnccn1)B(O)O` [Bortezomib] + O=C(Nc1ccccc1)c1cc([N+](=O)[O-])ccc1Cl [GW9662] (first compound 0.005 µM, partner dose 10 µM), the cell count in the test with 501Mel is 3.59%; with A101D, 11%; in the test on A2058, 16.5%; with A375, 97.7%.

On to `Cc1cn(-c2cc(NC(=O)c3ccc(C)c(Nc4nccc(-c5cccnc5)n4)c3)cc(C(F)(F)F)c2)cn1` [nilotinib] + COc1ccc(-c2ccc3c(N4CCOCC4)nc(N4C[C@@H](C)O[C@@H](C)C4)nc3n2)cc1CO [KU0063794] (first compound 1 µM, partner dose 0.1 µM), for which the cell count came to 98.5% with 501Mel, 85% in the test on A101D, 88.4% in the test with A2058 and 114% with A375.

Take `CC(C)C[C@H](NC(=O)[C@H](Cc1ccccc1)NC(=O)c1cnccn1)B(O)O` [Bortezomib] + COc1cc(N2CCC(N3CCN(C)CC3)CC2)ccc1Nc1ncc(Cl)c(Nc2ccccc2S(=O)(=O)C(C)C)n1 [NVP-TAE684] (first compound 0.005 µM, partner dose 0.4 µM): the cell count amounted to 13.3% with 501Mel, 17% in the test with A101D, 11.5% in the test with A2058 and 64% in the test with A375.

For `Cn1c(=O)n(-c2ccc(C(C)(C)C#N)cc2)c2c3cc(-c4cnc5ccccc5c4)ccc3ncc21` + COC(=O)c1sccc1S(=O)(=O)Nc1ccc(Nc2ccccc2)cc1OC [GSK0660] (first compound 0.02 µM, partner dose 5 µM), the cell count came to 84.9% in the test with 501Mel, 74.8% in the test on A101D, 54.2% in the test on A2058 and 91.8% with A375.
